Measurements published in PubChem BioAssay AID624417 (National Center for Advancing Translational Sciences (NCATS), 2012).
The campaign covered roughly 410,000 compounds. About 6,400 (1.6%) were called active. This list was built around the results that the source calls inconclusive (neither active nor inactive); the mix of calls is not that of the screen. Calls come from the whole dose curve; as a rule, active = well fitted inhibition curve with a large enough effect; inconclusive = small, poorly fitted or top-dose-only effect; inactive = no such curve, though single readings can be large or run the other way. No potency is given beside an inconclusive call; the fits are too rough.

Target: Glucagon-like peptide 1 receptor (Homo sapiens) (UniProt P43220)
Experiment: qHTS of GLP-1 Receptor Inverse Agonists (Inhibition Mode); note: nearly all actives have a fitted effect of over 55% in size
Settings: HEK293 GLP-1R CRE-luciferase, luminescence, 24 h, GLP-1R form is constitutively active; activity change, negative = inhibition: at 38.3 µM (top of the series) unless noted
Outline: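 Stable HEK293 clone (constitutively active GLP-1R + cAMP-response luciferase); 200 cells/uL plated, 12 h pre-culture, compound 24 hr, 37 deg C/5% CO2; detection reagent 12 min RT; luminescence.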
% is set by controls: 0 for no effect and ±100 for the full control effect; potency is the fitted concentration of half-maximal effect; tags give direction and shape of the fitted curve.

UniProt P43220, sequence (P43220 whole entry, looked up): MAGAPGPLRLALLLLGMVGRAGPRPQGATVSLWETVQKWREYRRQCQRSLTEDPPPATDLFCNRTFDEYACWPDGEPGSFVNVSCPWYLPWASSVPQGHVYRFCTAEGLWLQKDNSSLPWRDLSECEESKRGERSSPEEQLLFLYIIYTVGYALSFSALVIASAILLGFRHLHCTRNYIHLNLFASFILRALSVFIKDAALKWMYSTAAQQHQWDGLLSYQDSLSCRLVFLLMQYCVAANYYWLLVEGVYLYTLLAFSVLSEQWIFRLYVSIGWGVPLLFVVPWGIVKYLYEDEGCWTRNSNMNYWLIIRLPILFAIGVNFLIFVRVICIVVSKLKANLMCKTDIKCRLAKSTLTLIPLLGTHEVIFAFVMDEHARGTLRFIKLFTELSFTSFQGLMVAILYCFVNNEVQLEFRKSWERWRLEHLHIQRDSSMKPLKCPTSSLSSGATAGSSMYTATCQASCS

Row | SMILES | Potency | activity change, negative = inhibition
1 | CN(C)CCCN(C(=O)c1ccc2ccccc2c1)c1nc2cc3c(cc2s1)OCO3 | inconclusive [inhibitor, full curve, poor fit] | 
2 | CS(=O)(=O)N1CCN(c2ccccc2NC(=S)NC(=O)c2ccco2)CC1 | inconclusive [inhibitor, partial curve, poor fit] | 
3 | C=CCN1CC2CC3(COc4cc(C)cc(C)c4)C=CC2(O3)C1=O (stereo not drawn) | inactive | 
4 | CCc1ccccc1Nc1nc(N)nc(COC(=O)CCC(=O)c2ccc(F)cc2)n1 | inconclusive [inhibitor, single point] | 
5 | Cc1cc(N2CCN(S(=O)(=O)c3ccccc3)CC2)nc2c(C)cccc12 | inconclusive [inhibitor, single point] | 
6 | Cc1ccc(C)c(CN2CCCN(Cc3ccccc3C)S2(=O)=O)c1 | inconclusive [inhibitor, single point] | 
7 | S=C1NC2(CCCCCC2)N=C1c1ccccc1 | inconclusive [inhibitor, single point] | 
8 | Cc1cc(C)cc(NC(=O)CN2C(=O)c3ccccc3Sc3ccc(C(=O)N4CCCC4)cc32)c1 | inconclusive [inhibitor, single point] | 
9 | Cc1ccc(Cn2cc(C(=O)NN)c(=O)c3ccc(F)cc32)cc1 | inconclusive [inhibitor, partial curve, poor fit] | 
10 | CCOC(=O)C(C)Oc1cc(Cl)c(C=O)cc1OC (stereo not drawn) | inconclusive [inhibitor, single point] | 
11 | OCCNCCOc1ccccc1-c1ccccc1 | inconclusive [inhibitor, single point] | 
12 | CC(=O)Nc1ccc(OCC(=O)NCc2ccc3c(c2)OCO3)cc1 |  | inactive: 5.85% [at 0.307 µM]
13 | COc1cccc(NC(=O)c2cc3ccccc3o/c2=N\O)c1 | inconclusive [inhibitor, single point] | 
14 | COC(=O)c1ccc(NC(=O)CCN2CCOCC2)cc1 | inactive | 
15 | Clc1ccc2[nH]c3c(N4CCC5(CC4)OCCO5)ncnc3c2c1 | inconclusive [inhibitor, single point] | 
16 | CCN(C(=O)c1cc2c(=O)oc3ccccc3c2s1)c1ccccc1F | inactive | 
17 | O=C(NN=Cc1cccc2ccccc12)C(=O)NN=Cc1cccc2ccccc12 | inactive | 
18 | CCOc1cc(S(=O)(=O)NC2CC2)c(OCC)cc1-n1cnnn1 | inactive | 
19 | Cc1ccc(S(=O)(=O)N(CC(=O)N2CCc3ccccc3C2)c2ccc(Cl)c(Cl)c2)cc1 | inconclusive [inhibitor, single point] | 
20 | COc1ccc(C2(c3ccc(OC)cc3)NC(=O)N(CC(=O)NC3(C#N)CCCCC3)C2=O)cc1 | inconclusive [inhibitor, partial curve, poor fit] | 
21 | CC(=O)NCCc1nc2ccccc2n1Cc1ccc(C)cc1 | inconclusive [inhibitor, single point] | 

Row | SMILES | Potency | activity change, negative = inhibition
22 | CCOC(=O)[C@]12CCCC=C1N(CCC1=CCCCC1)C(=O)[C@H](CC(=O)NCc1ccccc1)C2 | inconclusive [inhibitor, single point] | 
23 | COCC(C)n1c(C)cc(C(=O)COc2ccc(N(C)S(=O)(=O)c3ccc(NC(C)=O)cc3)cc2)c1C (stereo not drawn) | inconclusive [inhibitor, single point] | 
24 | Cc1cccc(CS(=O)(=O)Cc2ccc(C(=O)NCc3ccc(F)cc3)o2)c1 | inactive | 
25 | NC(=S)NN=C1CCCCC12CCCC2 | inconclusive [inhibitor, single point] | 
26 | CSc1ccc(/C=N/NC(=O)CNc2ccc3ccccc3c2)cc1 | inconclusive [inhibitor, partial curve] | 
27 | Cc1cccc(OCC(=O)N2CCC3(CC2)CC(=O)c2ccccc2O3)c1 | inconclusive [inhibitor, single point] | 
28 | Nc1ccccc1SCc1c(Cl)cccc1Cl | inconclusive [inhibitor, full curve, poor fit] | 
29 | CCCCOc1ccc(CSC(=N)N)cc1Cl | inconclusive [inhibitor, single point] | 
30 | COc1ccccc1N1CCN(S(=O)(=O)c2cc(C(=O)Nc3ccc(Oc4ccccc4)cc3)ccc2F)CC1 | inconclusive [inhibitor, full curve, poor fit] | 
31 | CCOC(=O)c1c(C)oc2ccc(N(C(=O)c3ccncc3)S(=O)(=O)c3ccc(F)cc3C)cc12 | inconclusive [inhibitor, single point] | 
32 | Cc1ccc2nc(-c3ccc(Cl)c(NC(=O)COc4ccc([N+](=O)[O-])cc4)c3)oc2c1 | inactive | 
33 | CCOc1ccc(NC(=O)C2CC3CCC2C3)cc1 (stereo not drawn) | inconclusive [inhibitor, single point] | 
34 | CSc1ccccc1OC1CCN(Cc2ccccc2)CC1 | inconclusive [inhibitor, partial curve, poor fit] | 
35 | CC(COS(N)(=O)=O)Cc1ccc(C(F)(F)F)cc1 (stereo not drawn) | inconclusive [inhibitor, single point] | 
36 | COc1ccccc1CNC(=O)[C@H](C)N1C(=O)N2CCc3c([nH]c4ccccc34)[C@@]2(C)C1=O | inconclusive [inhibitor, partial curve, poor fit] | 
37 | O=C(CNC(=O)c1ccc(Br)cc1)NCc1cccnc1 | inactive | 
38 | Cc1cc(C(=O)Cn2nc(C(=O)O)c3ccccc3c2=O)c(C)n1-c1ccc(OC(F)F)cc1 | inconclusive [inhibitor, single point] | 
39 | COc1ccc(CN(CCN)C2CC(C)N(C)CC2C)cc1 (stereo not drawn) | inconclusive [inhibitor, full curve, poor fit] | 
40 | COc1ccccc1OCCCn1c(=O)oc2ccc(C)cc21 | inconclusive [inhibitor, single point] | 
41 | Cc1noc(C)c1COc1ccccc1C(=O)NC(C)CCc1ccccc1 (stereo not drawn) | inconclusive [inhibitor, partial curve, poor fit] | 
42 | CCc1ccccc1NC(=S)N(CCN1CCCCCC1)Cc1ccco1 | inactive | 

Row | SMILES | Potency | activity change, negative = inhibition
43 | Cc1ccnc(NC(c2cccc(O)c2)c2ccc3ccc(C)nc3c2O)c1 (stereo not drawn) | inconclusive [inhibitor, single point] | 
44 | Cc1ccc(CNC(=O)c2cc3sc(Cl)cc3n2C)cc1 | inconclusive [inhibitor, full curve] | 
45 | COc1ccc(-c2cnc(SCC(=O)Nc3nc(C(C)(C)C)cs3)n2Cc2ccco2)cc1 | inconclusive [inhibitor, partial curve, poor fit] | 
46 | CC(C)(C)c1ccc(NC(=S)NCc2cccs2)cc1 | inconclusive [inhibitor, partial curve, poor fit] | 
47 | O=C(Cn1ccnc1)c1ccc(O)c(O)c1 | inactive | 
48 | O=C(Cc1ccccc1)Nc1ccc(N2CCN(Cc3ccccc3F)CC2)cc1 | inconclusive [inhibitor, single point] | 
49 | CCOC(=O)c1c(-c2ccccc2)oc2ccc(NS(=O)(=O)c3ccc(C)cc3)cc12 | inconclusive [inhibitor, partial curve, poor fit] | 
50 | CCN1C(=O)c2ccccc2Sc2ccc(NC(=O)Nc3cc(C)cc(C)c3)cc21 | inconclusive [inhibitor, partial curve, poor fit] | 
51 | Clc1ccc(C(c2nnnn2CCc2ccccc2)N2CCSCC2)cc1 (stereo not drawn) | inconclusive [inhibitor, partial curve, poor fit] | 
52 | O=C(CSC1=Nc2ccccc2C2=NC(Cc3ccccc3)C(=O)N12)Nc1cccc(Cl)c1 (stereo not drawn) | inconclusive [inhibitor, single point] | 
53 | CCCCNC(=O)Cc1c(O)c2ccccc2[nH]c1=O | inactive | 
54 | O=C(C1=C[C@@H](c2csc3ccccc23)C[C@@H](OCc2ccc(CO)cc2)O1)N1CCN(Cc2ccc3c(c2)OCO3)CC1 | inconclusive [inhibitor, single point] | 
55 | COc1cccc(C2c3[nH]c4ccccc4c3CCN2Cc2ncc[nH]2)c1 (stereo not drawn) | inconclusive [inhibitor, partial curve, poor fit] | 
56 | COc1ccc(NC(=O)N(C)[C@H]2C[C@H]3c4[nH]c5ccc(-c6ccc(OC)cc6)cc5c4CCN3C(=O)[C@H]2[C@H](C)O)cc1 | inconclusive [inhibitor, partial curve, poor fit] | 
57 | COCC1CCCCN1C(=O)c1ccc2oc(CCCc3ccccc3)nc2c1 (stereo not drawn) | inconclusive [inhibitor, partial curve, poor fit] | 
58 | Cn1c(NC2CCCCC2)c(N=O)c(=O)n(C)c1=O | inactive | 
59 | COC(=O)c1ccc(NC(=O)CSc2nccn2CCc2ccccc2)cc1 | inconclusive [inhibitor, single point] | 
60 | O=c1c2ccccc2nc(-c2ccccc2)n1Cc1ccccc1 | inconclusive [inhibitor, partial curve, poor fit] | 
61 | O=C(CCCn1c(=O)c2ccccc2n(Cc2ccccc2)c1=O)NCc1ccco1 | inconclusive [inhibitor, partial curve, poor fit] | 
62 | CCCCCCN1C[C@H](n2cc(COC(=O)c3ccccc3)nn2)[C@@H](O)C[C@@H]1c1ccccc1 | inconclusive [inhibitor, single point] | 
63 | CC(C)N(C1=N/C(=C\c2ccco2)C(=O)N1c1ccccc1)C(C)C | inconclusive [inhibitor, partial curve, poor fit] | 
